Test results: the supplement of paper PMC10338343
± gives the standard deviation. Only a part is listed here, and it is no random draw.

Tested on: MIWI (PIWIL1) piRISC loaded with piRNA #1 (30 nt)
Assay: pre-steady-state target cleavage rate (min^-1); MIWI and MILI are mouse PIWI proteins and EfPiwi is from a freshwater sponge; tags in brackets are library labels; higher = faster piRNA-guided slicing of the target
Conditions: guide: piRNA #1 5'p-UGAGGUAGUAGGUUGUAUAGUAUCCAGAGG; auxiliary factor: 500 nM mouse GTSF1
Summary of the method: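 The pre-steady-state cleavage rate came from a burst-and-steady-state fit to pooled data from three Cleave-'n-Seq trials, in which uncleaved targets were sequenced and normalised to depth and to weakly complementary targets. Each reaction held 0.1 nM transcribed, DNA-blocked target RNA library and 1 nM active affinity-purified piRISC carrying one synthetic guide, with or without 500 nM GTSF1 partner protein, in HEPES–potassium acetate buffer at 33 °C for 0–8 or 0–960 min. k3 was capped at 0.0001 min^-1.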

Sequence | pre-steady-state target cleavage rate
CCUCUGGAUACUUUACUACCUACUACCUCA | 1.26 ± 0.095
GGAGUGGAUACAAUACAACCUACUACGUCA | 0.298 ± 0.025
GGAGACCUAUCUAUACAACCAACUUCCUCA | 0.00405 ± 0.003
GGAGACCUAUGUCUACAACCUACUACCUCA | 0.0169 ± 0.0072
GGAGAGGAUACUAUACAACCUUCUACGUCA | 0.102 ± 0.021
GGUCUGGAUUCAAUACAACCUACUACCUCA | 1.08 ± 0.069
GGACUGGAUACUAUUCAACCUACUAGCUCA | 0.029 ± 0.0064
GGAGAGGAUACUAUACAACCUACUUCCUGA | 0.00407 ± 0.0024
GGAGACCAUACUAUACAACCUCACUACCUCA | 0.00294 ± 0.0027
GCUCUGGAUACUAUACAACCUACUACCUCC [g2:g29:cont:t1C] | 2 ± 0.13
GGAGUGGAUACUAUACAACCUUGAUGGAGA [g10:g26:cont:t1A] | < 0.0001
GGAGACCUUACUAUAGAACCAACUACCUCA | 0.0271 ± 0.003
GGAGAGGAUAGUAUACAACCUAGUACCUCA | 0.157 ± 0.024
GGAGACCUUACUAUACAACCUACUACCUCC [g2:g22:cont:t1C] | 1.25 ± 0.072
GGACUGGAUACUAUACAACCUACUACCAGA | 0.0491 ± 0.012
GGUCUGGAUACUAUAGUUCCUACUACCUCA | 0.167 ± 0.029
GGAGUGGAUAGUAAACAACCUACUACCUCA | 0.425 ± 0.036
GGUCUGGAUACAAUACAACCUACUACCACA | 1.06 ± 0.093
GGAGAGGAUACUAAACAACCUACUACCACA | 0.78 ± 0.04
CGUCUGGAUACAAUACAACCUACUACCUCA | 1.74 ± 0.09

Sequence | pre-steady-state target cleavage rate
CCUCUGGAUACUAUUCAUCCUACUACCUCA | 1.61 ± 0.12
GGAGACCUAACUAUACAACCUACUACCUUCA | 0.679 ± 0.059
GCACUGGAUACUAUUCAACCUACUACCUCA | 1.85 ± 0.11
CCUCUGGAUACUAUACGAACCUACUACCUCA | 0.0165 ± 0.0067
CCUCUGGAUACUAUACAACUUACUACCUCA | 0.644 ± 0.026
GCUCUGGAUACUAUACUUCCUACUACCUCA | 0.202 ± 0.024
GGAGACGAUACUAAUCAACCUACUACCUCA | 1.07 ± 0.075
GGAGACGAUACUAUACAAGCAACUACCUCA | 0.0416 ± 0.0076
GGAGUGGAUACUAUACAACCUACUACGUCA | 0.398 ± 0.034
GGAGACGAUACUAUACAACCUACUAGGUCA | 0.00566 ± 0.0033
CCUCUGGAUACUAUACAACCUACAUGGAGA [g8:g30:cont:t1A] | 0.0372 ± 0.012
GGACUGGAUACUAUACAACCUUCUACCACA | 0.0747 ± 0.014
GGAGAGGAUACAAUACAACCUACUUCCUCA | 0.246 ± 0.043
GGAGACCUAUCAAUAGAACCUACUACCUCA | 0.00291 ± 0.0028
GGACUGGAUUCUUUACAACCUACUACCUCA | 1.13 ± 0.1
GCUCUCGAUAGUAUACAACCUACUACCUCA | 1.95 ± 0.13
GGAGACCUAUGAAUUCAACCUACUACCUGA | < 0.0001
GGAGACCUUACUAUACAACCUACUACCUGA | 0.777 ± 0.077
GGUCUGGAUACUAAACAACCUUCUACCUCA | 0.677 ± 0.037
GGAGACGAUUCUUUACAACCUACUACCUCA | 0.882 ± 0.088
